Test results taken from the supplement of paper PMC12217912.
Some of the results follow. The full chains were built here from the parent and the listed change. Values near 0.05 are background.

B1: TEV protease; numbered along this chain (parent)
chain: MGESLFKGPRDYNPISSSICHLTNESDGHTTSLYGIGFGPFIITNKHLFRRNNGTLVVQSLHGVFKVKDTTTLQQHLVDGRDMIIIRMPKDFPPFPQKLKFREPQREERICLVTTNFQTKSMSSMVSDTSCTFPSGDGIFWKHWIQTKDGQCGSPLVSTRDGFIVGIHSASNFTNTNNYFTSVPKNFMELLTNQEAQQWVSGWRLNADSVLWGGHKVFMVKPEEPFQPVKEATQL

Variants of: B1
Experiment: raw area under fraction-flipped curve 0-4 h after induction (AUC4h, not background-subtracted), DNA-recorder readout of cleavage of the substrate (dimensionless); higher = more cleavage of the substrate by the protease variant
Conditions: temperature: 34 °C; time window: 0-4 h after rhamnose induction
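Further: Bxb1 expression induced with 0.2% (w/v) L-rhamnose at OD600 near 0.5, cultures sampled hourly, flipped fraction per protease–substrate barcode pair counted by paired-end Illumina sequencing.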

Q: Which “area with substrate ENCYFQS” value does the source give for MGESLFKGPRDYNPISSSICHLTNESDGHTTSLYGIGFGPFIITNKHLFRRNNGTLVVQSLHGVFKVKDTTTLQQHLVDGRDMIIIRMPKDFPPFPQKLKFREPQREERICLVTTNFQNKSMSSMVSDTSCTFPSGDGIFWKHWIQTKDGQCGSPLVSTRDGFIVGIHSASNFTNTNNYFTSVPKNFMELLTNQEAQQWVSGWRLNADSVLWGGHKVFMVKPEEPFQPVKEATQL [T119N] here?
A: 0.0691

Q: And the “area with substrate ENDYFQS” value?
A: 0.0449

Q: What about the “area with substrate ENEYFQS” value of the same variant?
A: 0.0671

Q: What about the “area with substrate ENHYFQS” value of the same variant?
A: 0.0698

Q: What about the “area with substrate ENIYFQS” value of the same variant?
A: 0.124

Q: And the “area with substrate ENNYFQS” value?
A: 0.0491

Q: And the “area with substrate ENQYFQS” value?
A: 0.0391

Q: What about the “area with substrate ENRYFQS” value of the same variant?
A: 0.0483

Q: What about the “area with substrate ENSYFQS” value of the same variant?
A: 0.0592

Q: What about the “area with substrate ENVYFQS” value of the same variant?
A: 0.0773

Q: What about the “area with substrate ENWYFQS” value of the same variant?
A: 0.0026

Q: With MGESLFKGPRDYNPISSSICHLTNESDGHTTSLYGIGFGPFIITNKHLFRRNNGTLVVQSLHGVFKVKDTTTLQQHLVDGRDMIIIRMPKDFPPFPQKLKFREPQREEDICLVTTNFQTKSMSSMVSDTSCTFPSGDGIFWKHWIQTKDGQCGSPLVSTRDGFIVGIHSASNFTNTNNYFTSVPKNFMELLTNQEAQQWVSGWRLNADSVLWGGHKVFMVKPEEPFQPVKEATQL [R109D] as the variant, how does the “area with substrate ENCYFQS” value read?
A: 0.0684

Q: What about the “area with substrate ENEYFQS” value of the same variant?
A: 0.0609

Q: And the “area with substrate ENGYFQS” value?
A: 0.0569

Q: What about the “area with substrate ENHYFQS” value of the same variant?
A: 0.0766

Q: And the “area with substrate ENNYFQS” value?
A: 0.0625

Q: What about the “area with substrate ENPYFQS” value of the same variant?
A: 0.0705

Q: What about the “area with substrate ENQYFQS” value of the same variant?
A: 0.0674

Q: What about the “area with substrate ENSYFQS” value of the same variant?
A: 0.0623

Q: And the “area with substrate ENVYFQS” value?
A: 0.0697

Q: With MGESLFKGPRDYNPISSSICHLTNESDGHTTSLYGIGFGPFIITNKHLFRRNNGTLVVQSLHGVFKVKDTTTLQQHLVDGRDMIIIRMPKDFPPFPQKLKFREPQREEMICLVTTNFQTKSMSSMVSDTSCTFPSGDGIFWKHWIQTKDGQCGSPLVSTRDGFIVGIHSASNFTNTNNYFTSVPKNFMELLTNQEAQQWVSGWRLNADSVLWGGHKVFMVKPEEPFQPVKEATQL [R109M] as the variant, how does the “area with substrate ENCYFQS” value read?
A: 0.06

Q: And the “area with substrate ENDYFQS” value?
A: 0.055

Q: And the “area with substrate ENGYFQS” value?
A: 0.0803

Q: What about the “area with substrate ENHYFQS” value of the same variant?
A: 0.0671

Q: And the “area with substrate ENNYFQS” value?
A: 0.0804

Q: And the “area with substrate ENPYFQS” value?
A: 0.0473

Q: And the “area with substrate ENQYFQS” value?
A: 0.0606

Q: What about the “area with substrate ENRYFQS” value of the same variant?
A: 0.0703

Q: And the “area with substrate ENSYFQS” value?
A: 0.068

Q: Which “area with substrate ENCYFQS” value does the source give for MGESLFKGPRDYNPISSSICHLTNESDGHTTSLYGIGFGPFIITNKHLFRRNNGTLVVQSLHGVFKVKDTTTLQQHLVDGRDMIIIRMPKDFPPFPQKLKFREPQREERICLVTTNFQTKSMSSMDSDTSCTFPSGDGIFWKHWIQTKDGQCGSPLVSTRDGFIVGIHSASNFTNTNNYFTSVPKNFMELLTNQEAQQWVSGWRLNADSVLWGGHKVFMVKPEEPFQPVKEATQL [V126D] here?
A: 0.0693

Q: What about the “area with substrate ENGYFQS” value of the same variant?
A: 0.0519

Q: And the “area with substrate ENIYFQS” value?
A: 0.103

Q: And the “area with substrate ENKYFQS” value?
A: 0.0597

Q: And the “area with substrate ENQYFQS” value?
A: 0.0622

Q: What about the “area with substrate ENRYFQS” value of the same variant?
A: 0.0419

Q: And the “area with substrate ENSYFQS” value?
A: 0.0608

Q: What about the “area with substrate ENWYFQS” value of the same variant?
A: 0.0352

Q: And the “area with substrate ENYYFQS” value?
A: 0.0584

Q: For MGESLFKGPRDYNPISSSICHLTNESDGHTTSLYGIGFGPFIITNKHLFRRNNGTLVVQSLHGVFKVKDTTTLQQHLVDGRDMIIIRMPKDFPPFPQKLKFREPQREERICLVTTNFQTKSMSSMVSDTFCTFPSGDGIFWKHWIQTKDGQCGSPLVSTRDGFIVGIHSASNFTNTNNYFTSVPKNFMELLTNQEAQQWVSGWRLNADSVLWGGHKVFMVKPEEPFQPVKEATQL [S130F], which “area with substrate ENCYFQS” value is on record?
A: 0.0672

Q: What about the “area with substrate ENDYFQS” value of the same variant?
A: 0.0461

Q: What about the “area with substrate ENGYFQS” value of the same variant?
A: 0.0452

Q: What about the “area with substrate ENHYFQS” value of the same variant?
A: 0.0682

Q: And the “area with substrate ENNYFQS” value?
A: 0.051

Q: What about the “area with substrate ENQYFQS” value of the same variant?
A: 0.059

Q: What about the “area with substrate ENSYFQS” value of the same variant?
A: 0.0662

Q: And the “area with substrate ENTYFQS” value?
A: 0.0533

Q: And the “area with substrate ENWYFQS” value?
A: 0.0643
